Measurements: EPA's CvTdb concentration-time database
The source gives many values for each of these; only a part stands here.

Assays:
Test in all cases: concentration in plasma after dosing
Rat [1] = settings: dosed: Perfluorodecanoic acid, 10 mg/kg, oral, Male, Harlan Sprague Dawley
Rat [2] = settings: 1 h; dosed: Perfluorodecanoic acid; 10 mg/kg; oral; Male; Harlan Sprague Dawley
Rat [3] = settings: 24 h; dosed: Perfluorodecanoic acid; 10 mg/kg; oral; Female; Harlan Sprague Dawley
Rat [4] = settings: dosed: Perfluorodecanoic acid, 2 mg/kg, oral, Male, Harlan Sprague Dawley
Rat [5] = settings: dosed: Perfluorodecanoic acid, 10 mg/kg, oral, Male, Harlan Sprague Dawley; remark: listed apart in the source
Rat [6] = settings: 24 h; dosed: Perfluorooctane Sulfonate; 20 mg/kg; oral; Male; Harlan Sprague Dawley
Rat [7] = settings: 24 h; dosed: Perfluorooctane Sulfonate; 20 mg/kg; oral; Female; F344
Rat [8] = settings: 864 h; dosed: Perfluorooctane Sulfonate; 2 mg/kg; oral; Female; Harlan Sprague Dawley
Rat [9] = settings: 6 h; dosed: Perfluorooctane Sulfonate; 2 mg/kg; oral; Female; Harlan Sprague Dawley
Rat [10] = settings: 3360 h; dosed: Perfluorooctane Sulfonate; 20 mg/kg; oral; Male; Harlan Sprague Dawley
Rat [11] = settings: dosed: Perfluorooctane Sulfonate, 2 mg/kg, oral, Female, Harlan Sprague Dawley
Rat [12] = settings: 1848 h; dosed: Perfluorooctane Sulfonate; 20 mg/kg; oral; Male; Harlan Sprague Dawley
Rat [13] = settings: dosed: Perfluorooctane Sulfonate, 20 mg/kg, oral, Male, F344
Rat [14] = settings: 864 h; dosed: Perfluorooctane Sulfonate; 20 mg/kg; oral; Female; F344
Rat [15] = settings: 48 h; dosed: Fluorotelomer alcohol 8+2; 40 mg/kg; oral; Female; Harlan Sprague Dawley
Rat [16] = settings: dosed: Perfluorooctanoic acid, 6 mg/kg, iv, Male, F344
Rat [17] = settings: dosed: Perfluorooctanoic acid, 40 mg/kg, oral, Male, Harlan Sprague Dawley
Rat [18] = settings: 3 h; dosed: Perfluorooctanoic acid; 12 mg/kg; oral; Male; Harlan Sprague Dawley
Rat [19] = settings: 12 h; dosed: Fluorotelomer alcohol 8+2; 80 mg/kg; oral; Female; Harlan Sprague Dawley
Rat [20] = settings: 3 h; dosed: Fluorotelomer alcohol 8+2; 40 mg/kg; oral; Female; Harlan Sprague Dawley
Rat [21] = settings: dosed: Perfluorooctanoic acid, 48 mg/kg, oral, Male, Harlan Sprague Dawley
Rat [22] = settings: 192 h; dosed: Perfluorooctanoic acid; 80 mg/kg; oral; Female; Harlan Sprague Dawley
Rat [23] = settings: 48 h; dosed: Perfluorooctanoic acid; 80 mg/kg; oral; Female; Harlan Sprague Dawley
Rat [24] = settings: dosed: Perfluorooctanoic acid, 48 mg/kg, oral, Male, Harlan Sprague Dawley; remark: listed apart in the source
Rat [25] = settings: dosed: Fluorotelomer alcohol 8+2, 160 mg/kg, oral, Female, Harlan Sprague Dawley
Rat [26] = settings: dosed: Perfluorooctanoic acid, 6 mg/kg, oral, Male, Harlan Sprague Dawley
Rat [27] = settings: 6 h; dosed: Fluorotelomer alcohol 8+2; 24 mg/kg; oral; Male; Harlan Sprague Dawley
Rat [28] = settings: 1 h; dosed: Perfluorooctanoic acid; 80 mg/kg; oral; Female; Harlan Sprague Dawley
Rat [29] = settings: 24 h; dosed: Perfluorooctanoic acid; 80 mg/kg; oral; Female; Harlan Sprague Dawley
Rat [30] = settings: 1 h; dosed: Perfluorooctanoic acid; 40 mg/kg; iv; Male; F344
Rat [31] = settings: 6 h; dosed: Perfluorooctanoic acid; 80 mg/kg; oral; Female; Harlan Sprague Dawley
Rat [32] = settings: dosed: Perfluorooctanoic acid, 40 mg/kg, iv, Male, F344
Rat [33] = settings: 0.5 h; dosed: Fluorotelomer alcohol 8+2; 80 mg/kg; oral; Female; Harlan Sprague Dawley
Rat [34] = settings: dosed: Fluorotelomer alcohol 8+2, 40 mg/kg, oral, Female, Harlan Sprague Dawley

O=C(O)C(F)(F)C(F)(F)C(F)(F)C(F)(F)C(F)(F)C(F)(F)C(F)(F)C(F)(F)C(F)(F)F [Perfluorodecanoic acid]
Settings | concentration in plasma [µg/mL]
Rat [1], 0.5 h | 13
Rat [1], 192 h | 23.5
Rat [1], 1848 h | 5.08
Rat [4], 0.5 h | 2.63
Rat [4], 24 h | 10.7
Rat [4], 1848 h | 1.96
Rat [5], 2 h | 22.4
Rat [5], 528 h | 13.5
Rat [5], 2520 h | 3.88

Settings | concentration in plasma [µg/mL]
Rat [2] | 18.8
Rat [3] | 54.6

O=S(=O)([O-])C(F)(F)C(F)(F)C(F)(F)C(F)(F)C(F)(F)C(F)(F)C(F)(F)C(F)(F)F [Perfluorooctane Sulfonate]
Settings | concentration in plasma [µg/mL]
Rat [6] | 93.8
Rat [7] | 85.8
Rat [8] | 3.27
Rat [9] | 5.86
Rat [10] | 3.02
Rat [12] | 18.8
Rat [14] | 32.9

concentration in plasma [µg/mL]
Settings | 1 h | 12 h | 528 h
Rat [11] | 3.18 | – | 4.79
Rat [13] | – | 85 | 33.4

O=C(O)C(F)(F)C(F)(F)C(F)(F)C(F)(F)C(F)(F)C(F)(F)C(F)(F)F [Perfluorooctanoic acid]
Settings | concentration in plasma [µg/mL]
Rat [15] | 0.0141
Rat [18] | 76.4
Rat [19] | 0.325
Rat [20] | 1.15
Rat [22] | 1.39
Rat [23] | 0.628
Rat [27] | 0.905
Rat [28] | 247
Rat [29] | 8.26
Rat [30] | 204
Rat [31] | 159
Rat [33] | 0.497

Settings | concentration in plasma [µg/mL]
Rat [16], 0.25 h | 50.7
Rat [16], 6 h | 45
Rat [16], 864 h | 3.06
Rat [17], 1 h | 113
Rat [17], 12 h | 64.4
Rat [21], 3 h | 228
Rat [21], 192 h | 72.1
Rat [21], 1200 h | 5.36
Rat [24], 0.25 h | 44.7
Rat [24], 12 h | 246
Rat [24], 528 h | 18.8
Rat [25], 0.75 h | 1.4
Rat [25], 12 h | 4.46
Rat [26], 3 h | 35
Rat [26], 24 h | 38.8
Rat [26], 1200 h | 3.78
Rat [32], 0.5 h | 220
Rat [32], 24 h | 1.64
Rat [34], 0.75 h | 0.932
Rat [34], 12 h | 0.704
